Test results taken from US20050282943A1, “Solubilized additive composition comprising acidic and basic constituents” (INVISTA NORTH AMERICA S.A R.L., priority 2004, published 2005).

Assay: Dissolution of water insoluble additive in demineralized water on adding a counterpart salt forming species (visual)

stability of solution on cooling (Example 12, 1:1 solution cooled to room temperature): stayed as a clear colourless solution | additive content of solution (Irganox 1310 + triacetonediamine (1:1 mol) in 15 g demineralized water (Example 12)): about 11 w %
Compound: CC(C)(C)c1cc(CCC(=O)O)cc(C(C)(C)C)c1O [Irganox 1310, 3-(3,5-di-t-butyl-4-hydroxyphenyl)propionic acid]
